# Reference: paper PMC4081100
# Only a part is listed here, and it is no random draw. At the low end of the ranking, values are background and their order means little.
# Molecular target: T1, GST-NTL8 NAC domain (UniProt Q9XIN7)
# T1 sequence: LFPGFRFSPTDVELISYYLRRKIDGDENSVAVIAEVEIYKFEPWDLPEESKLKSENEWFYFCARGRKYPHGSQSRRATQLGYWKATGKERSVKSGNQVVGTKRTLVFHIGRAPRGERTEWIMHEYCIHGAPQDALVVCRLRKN
# Assay: universal protein binding microarray (PBM)
# Settings: high values mean tight binding; double strand, one strand shown
row,Sequence,binding signal
1,TCAAGTCA,-0.0264 E-score
2,ACCGTCAA,0.039 E-score
3,ACGCCACG,-0.0579 E-score
4,GGAGGTAA,0.435 E-score
5,CACTCAAC,-0.021 E-score
6,CACACGCC,-0.0281 E-score
7,GTCAGTCA,-0.00441 E-score
8,CGTAGACC,-0.145 E-score
9,GTCAAGCA,0.0377 E-score
10,CGTTGACA,-0.0447 E-score
11,GAAGAAAC,0.423 E-score
12,CCAAGTCA,0.0169 E-score
13,GCGTCAAC,-0.0485 E-score
14,GTTGACTA,0.0207 E-score
15,GGCGTCAA,-0.0481 E-score
16,TATACGCA,-0.0133 E-score
17,TAAAGTCA,-0.102 E-score
18,TGACTCAA,0.0257 E-score
19,GTCAACAA,0.0573 E-score
20,GTCAATTA,0.0378 E-score
21,AAGTCATC,0.0978 E-score
22,ACGCCACC,-0.179 E-score
23,CTTACGCA,0.111 E-score
24,AAGTCAAT,-0.0194 E-score
25,GAGTTGAC,-0.159 E-score

# Molecular target: T2, GST-VND3 NAC domain (UniProt Q9FH59)
# T2 sequence: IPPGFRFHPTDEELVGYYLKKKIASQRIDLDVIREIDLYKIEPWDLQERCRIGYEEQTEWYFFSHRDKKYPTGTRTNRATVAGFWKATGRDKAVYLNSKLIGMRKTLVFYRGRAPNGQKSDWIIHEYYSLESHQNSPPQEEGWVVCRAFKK
# Assay: universal protein binding microarray (PBM)
# Settings: high values mean tight binding; double strand, one strand shown
row,Sequence,binding signal
1,CTGTTGAC,0.0152 E-score
2,GTCAAGAA,0.00283 E-score
3,CTTAAGGA,0.0373 E-score
4,AAGGAATG,0.0415 E-score
5,GGGGTCAA,-0.103 E-score
6,GTCAAGTA,0.137 E-score
7,AGGGAAAG,-0.0401 E-score
8,CACGCTAG,0.0403 E-score
9,TAGGGAAA,0.0218 E-score
10,CTTGACCC,-0.145 E-score
11,TCAAGTCA,0.007 E-score
12,ACCGTCAA,0.126 E-score
13,ACGCCACG,-0.0471 E-score
14,GGAGGTAA,0.139 E-score
15,CACTCAAC,0.089 E-score
16,CACACGCC,0.028 E-score
17,GTCAGTCA,-0.0527 E-score
18,CGTAGACC,0.0411 E-score
19,GGTCAAAA,0.0741 E-score
20,GTCAAGCA,-0.0137 E-score

row,Sequence,binding signal
1,CTTAGTCA,-0.0106 E-score
2,CGTTGACA,-0.0171 E-score
3,GAAGAAAC,0.00159 E-score
4,CCAAGTCA,-0.0615 E-score
5,GCGTCAAC,-0.0407 E-score
6,GTTGACTA,0.158 E-score
7,CACGCGAA,-0.0654 E-score
8,TTAAGGAA,0.24 E-score
9,GGCGTCAA,-0.0887 E-score
10,TATACGCA,0.29 E-score
11,TAAAGTCA,-0.062 E-score
12,TGACTCAA,0.113 E-score
13,GTCAACAA,0.0416 E-score
14,GTCAATTA,0.104 E-score
15,AAGTCATC,0.0031 E-score
16,ACGCCACC,-0.0279 E-score
17,CTTACGCA,0.255 E-score
18,AAGTCAAT,0.0407 E-score
19,GAGTTGAC,0.0477 E-score

# Molecular target: T3, GST-VND7 NAC domain (UniProt Q9C8W9)
# T3 sequence: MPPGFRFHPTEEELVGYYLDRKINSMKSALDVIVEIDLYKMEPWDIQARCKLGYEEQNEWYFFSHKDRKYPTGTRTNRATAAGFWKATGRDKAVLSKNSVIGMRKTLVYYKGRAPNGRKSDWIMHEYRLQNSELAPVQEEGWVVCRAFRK
# Assay: universal protein binding microarray (PBM)
# Settings: transcription factors of Arabidopsis thaliana; high values mean tight binding; most listed sequences are background and not binding sites; double strand, one strand shown
row,Sequence,binding signal
1,CTGTTGAC,-0.051 E-score
2,GTCAAGAA,-0.0145 E-score
3,CTTAAGGA,-0.0527 E-score
4,AAGGAATG,0.0905 E-score
5,GGGGTCAA,0.012 E-score
6,GTCAAGTA,0.0236 E-score
7,AGGGAAAG,-0.0742 E-score
8,CACGCTAG,-0.0264 E-score
9,TAGGGAAA,0.0188 E-score
10,CTTGACCC,-0.0117 E-score
11,TCAAGTCA,-0.0449 E-score
12,ACCGTCAA,0.019 E-score
13,ACGCCACG,0.038 E-score
14,GGAGGTAA,0.0814 E-score
15,CACTCAAC,0.00897 E-score
16,CACACGCC,0.0208 E-score
17,GTCAGTCA,0.0101 E-score
18,CGTAGACC,-0.128 E-score
19,GGTCAAAA,-0.0183 E-score
20,GTCAAGCA,-0.042 E-score

row,Sequence,binding signal
1,CTTAGTCA,0.0448 E-score
2,CGTTGACA,-0.0931 E-score
3,GAAGAAAC,0.0868 E-score
4,CCAAGTCA,-0.0034 E-score
5,GCGTCAAC,0.0159 E-score
6,GTTGACTA,0.0849 E-score
7,CACGCGAA,0.0268 E-score
8,TTAAGGAA,-0.0483 E-score
9,GGCGTCAA,-0.068 E-score
10,TATACGCA,0.102 E-score
11,TAAAGTCA,-0.141 E-score
12,TGACTCAA,0.0043 E-score
13,GTCAACAA,0.07 E-score
14,GTCAATTA,0.0371 E-score
15,AAGTCATC,0.11 E-score
16,ACGCCACC,-0.0263 E-score
17,CTTACGCA,0.295 E-score
18,AAGTCAAT,0.0343 E-score
19,GAGTTGAC,4e-05 E-score
